# From publication PMC4336329 (PLoS ONE, 2015)
# Hit rate of the full screen: of about 310,000 compounds, about 2,200 (0.71%) showed an effect of 50% or more. The effect is printed as a negative number. Some of the results follow.
# Target: human ether-à-go-go-related gene (hERG) potassium channel (human, UniProt Q12809)
# Assay: primary screen, population patch clamp on CHO cells stably expressing hERG
# Chain of human ether-à-go-go-related gene (hERG) potassium channel (Q12809 whole entry, looked up): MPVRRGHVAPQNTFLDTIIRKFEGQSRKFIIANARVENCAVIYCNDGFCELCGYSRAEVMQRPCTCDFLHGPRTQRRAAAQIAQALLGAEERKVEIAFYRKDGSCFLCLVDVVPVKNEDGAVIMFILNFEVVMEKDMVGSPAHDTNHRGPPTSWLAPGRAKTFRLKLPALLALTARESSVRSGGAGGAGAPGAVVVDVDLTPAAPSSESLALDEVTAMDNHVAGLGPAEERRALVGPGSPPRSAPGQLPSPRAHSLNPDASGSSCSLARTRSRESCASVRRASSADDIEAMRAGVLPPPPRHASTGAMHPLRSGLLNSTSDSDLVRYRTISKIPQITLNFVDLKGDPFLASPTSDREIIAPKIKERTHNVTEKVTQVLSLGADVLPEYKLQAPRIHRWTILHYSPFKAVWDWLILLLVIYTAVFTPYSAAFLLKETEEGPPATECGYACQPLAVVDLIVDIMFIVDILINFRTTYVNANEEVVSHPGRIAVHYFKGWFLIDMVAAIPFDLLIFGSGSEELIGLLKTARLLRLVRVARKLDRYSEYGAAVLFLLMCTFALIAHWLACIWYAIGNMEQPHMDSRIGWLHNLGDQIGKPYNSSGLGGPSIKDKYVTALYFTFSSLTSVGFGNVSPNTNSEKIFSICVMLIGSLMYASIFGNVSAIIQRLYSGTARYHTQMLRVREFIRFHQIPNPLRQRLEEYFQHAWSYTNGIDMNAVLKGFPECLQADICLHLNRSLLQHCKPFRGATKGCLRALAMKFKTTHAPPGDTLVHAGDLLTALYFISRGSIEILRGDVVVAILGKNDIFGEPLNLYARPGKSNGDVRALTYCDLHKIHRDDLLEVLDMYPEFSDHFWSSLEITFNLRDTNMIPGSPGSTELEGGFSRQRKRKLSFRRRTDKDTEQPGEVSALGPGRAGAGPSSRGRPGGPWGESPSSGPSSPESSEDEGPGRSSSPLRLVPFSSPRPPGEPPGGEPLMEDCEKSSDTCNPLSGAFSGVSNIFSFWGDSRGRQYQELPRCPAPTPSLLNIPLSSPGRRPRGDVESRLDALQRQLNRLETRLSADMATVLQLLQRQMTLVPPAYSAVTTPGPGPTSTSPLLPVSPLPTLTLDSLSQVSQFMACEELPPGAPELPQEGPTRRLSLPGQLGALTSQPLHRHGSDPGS
row,Compound,"hERG current change (%, negative = inhibition) at 1uM [%]"
1,C=CCSc1nnc(NC(=O)C2=COCCO2)s1,10.5
2,Cc1sc(-n2c(C)ccc2C)c(C#N)c1C,0.797
3,Cc1ccc2occ(CN3CC4CC(C3)c3cccc(=O)n3C4)c(=O)c2c1 (stereo not shown),-36.1
4,CCN(Cc1cc2cccc(C)c2[nH]c1=O)C(=O)c1ccccc1OC,0.99
5,NC(=O)c1ccsc1NC(=O)CCS(=O)(=O)c1ccccc1,7.68
6,NNC(=O)c1cncn1-c1ccc(F)cc1,12.3
7,COc1ccccc1NC(=O)NCCN1CCNC1=O,-3.66
8,COc1cccc(O)c1CN1CCCC(C(=O)c2ccccc2SC)C1 (stereo not shown),-0.41
9,CC(C1CC1)N(Cc1ccccc1)C(=O)NC(=O)c1cccc(F)c1 (stereo not shown),-2.31
10,C/C(=N/Nc1nc(C)cc(C)n1)c1ccc(Br)cc1,10.1
11,O=c1c2ccccc2nc(-c2ccc(Cl)cc2)n1C1CCS(=O)(=O)C1 (stereo not shown),12.8
12,CC(C)CNC(=O)CSc1nc(-c2cccs2)cc(C(F)(F)F)n1,0.741
13,Cc1ccc2c(c1)N(CC(=O)NCc1ccco1)C(=O)CO2,0.956
14,CO[C@@]1(NC(=O)Cc2cccs2)C(=O)N2C(C(=O)[O-])=C(COC(N)=O)CS[C@@H]21.[Na+],15.4
15,O=C(OCc1nnc(-c2ccccc2)o1)c1cccc(S(=O)(=O)N2CCOCC2)c1,-0.299
16,COc1cccc(-c2cc(C(=O)Nc3ccc4c(c3)OCO4)no2)c1,19.5
17,O=S(=O)(NCc1ccc(Cl)cc1)c1cccc2cccnc12,8.39
18,CN1C(=O)C(C2c3ccccc3C(=O)N2Cc2ccccc2)C(=O)N(C)C1=O (stereo not shown),3.31
19,CCOC(=O)CCCSc1nc2sc(C)c(C)c2c(=O)[nH]1,19.7
20,O=C(NCC(c1ccco1)N1CCCC1)c1ccccc1Sc1ccc(C(F)(F)F)cc1[N+](=O)[O-] (stereo not shown),4.07
21,COc1ccc(NC(=S)NCc2ccccc2)c(OC)c1,15.7
22,O=Cc1coc2c(ccc3ccccc32)c1=O,8.98
23,COCCNC(=O)c1ccc(CS(=O)(=O)c2ccccc2C)o1,11.1
24,CCOc1ccccc1N1CCN(C(=O)c2cc(S(=O)(=O)N3CCCCC3)ccc2C)CC1,0.805
25,O=C(C1=C[C@@H](c2csc3ccccc23)C[C@@H](OCCCCO)O1)N1CCN(Cc2ccc3c(c2)OCO3)CC1,6.06
